Hit rate of the full screen: of about 370,000 compounds, about 150 (0.041%) were called active. Inconclusive means that the source gave no clear call. Such entries were picked first, then a sample of the others. The call rests on the fitted dose curve; in most records, active means well fitted inhibition curve with a large enough effect; inconclusive means small, poorly fitted or top-dose-only effect; inactive means flat fitted curve, though single readings scatter. Potencies of inconclusive entries are left out as doubtful fits.
Target: Beta-lactamase (Escherichia coli (strain K12)) (UniProt P00811)
Assay: qHTS Inhibitors of AmpC Beta-Lactamase (assay with detergent); further: nearly all actives have a fitted effect of over 25% in size
Conditions: AmpC hydrolysis of nitrocefin, absorbance 480 nm, 0.01% Triton; series mostly up to 114 µM
How it was run: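 20 mM phosphate pH 7.0 + 0.01% (detergent screen) or 0.0001% Triton X-100; 5.3 nM AmpC reagent; cpd preinc 15 min RT; nitrocefin (800 uM stock) to start; A480 q20 s × 4 min; Activity was normalised to no-enzyme and no-compound control wells.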
Potency means the concentration at half of the fitted maximal effect; tags describe the fitted curve by direction and shape.

UniProt P00811, sequence (P00811 whole entry, looked up): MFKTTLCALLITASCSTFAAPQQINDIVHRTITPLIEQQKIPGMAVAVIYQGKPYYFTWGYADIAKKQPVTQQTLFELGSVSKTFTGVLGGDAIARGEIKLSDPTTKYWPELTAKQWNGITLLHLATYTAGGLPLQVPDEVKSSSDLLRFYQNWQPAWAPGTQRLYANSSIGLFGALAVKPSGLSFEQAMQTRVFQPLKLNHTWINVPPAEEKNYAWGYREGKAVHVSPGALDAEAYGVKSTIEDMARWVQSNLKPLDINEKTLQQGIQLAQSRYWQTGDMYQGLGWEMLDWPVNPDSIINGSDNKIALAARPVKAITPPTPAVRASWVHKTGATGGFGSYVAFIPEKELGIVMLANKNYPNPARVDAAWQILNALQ

Row | Structure (SMILES) | Potency
1 | COc1ccc(NC(=O)CCC(=O)N/N=C/c2ccc([N+](=O)[O-])s2)cc1 | inactive
2 | CN(C(=O)COC(=O)c1ccc(F)c(S(=O)(=O)N2CCOCC2)c1)C1CCS(=O)(=O)C1 (configuration not stated) | inconclusive [inhibitor, single point]
3 | O=C(Cc1ccc(F)cc1)N1CCN(c2ccc(F)cc2)CC1 | inactive
4 | CCc1cc(=O)oc2c(C)c(OCC(=O)N3CCC(C(=O)O)CC3)ccc12 | inconclusive [inhibitor, full curve, poor fit]
5 | O=C(NCc1ccccn1)c1n[nH]c2ccccc12 | inconclusive [inhibitor, full curve, poor fit]
6 | O=C(NCc1nc2ccccc2[nH]1)C1=C[C@@H](c2ccc(Br)cc2)C[C@@H](OCc2ccc(CO)cc2)O1 | inactive
7 | O=C(OCc1cc2ccccc2[nH]c1=O)c1ccncc1 | inconclusive [inhibitor, partial curve, poor fit]
8 | COc1ccc(S(=O)(=O)Nc2cc(Cl)ccc2-n2cncn2)cc1 | inconclusive [inhibitor, full curve, poor fit]
9 | CC(C)CC(=O)NC1(C(F)(F)F)C(=O)Nc2c1c(=O)n(C)c(=O)n2C (configuration not stated) | inconclusive [inhibitor, full curve, poor fit]
10 | CCN(CC)c1ccc(N=Cc2ccc(N(CC)CC)cc2O)cc1 | inconclusive [inhibitor, full curve, poor fit]
11 | Cc1[nH][nH]c(=O)c1C=NCc1cccs1 | inconclusive [inhibitor, full curve, poor fit]
12 | COc1ccccc1NC(=O)CC(C)n1nc(C)cc1C (configuration not stated) | inactive
13 | CC(C)(C)c1ccc(S(=O)(=O)C(C)(C)C)cc1 | inconclusive [inhibitor, full curve]
14 | O=C(c1cnc(Cl)c(Cl)c1)N1CCC(Cc2ccccc2)CC1 | inconclusive [inhibitor, full curve, poor fit]
15 | O=C(NC1CCCCCC1)c1cc2ccccc2oc1=O | inconclusive [inhibitor, partial curve]
16 | CCCC1(CCC)NC(=O)N(CC(=O)Nc2ccccc2OC)C1=O | inactive
17 | CC(C)C(=O)Nc1cccc(C(=O)Nc2ccc(S(=O)(=O)N3CCOCC3)cc2)c1 | inactive
18 | Cc1[nH]c(C)c(S(=O)(=O)NCc2ccccc2Cl)c1C(=O)N1CCCC1 | inconclusive [inhibitor, full curve, poor fit]
19 | Cc1cccc(N2CCN(S(=O)(=O)c3ccc(-c4ccc(=O)[nH]n4)o3)CC2)c1C | inactive
20 | Cc1ccc(C)c(Cn2nnc3c(=O)[nH]c(C4CCCN(C(=O)CC(C)C)C4)nc32)c1 (configuration not stated) | inconclusive [inhibitor, full curve, poor fit]
21 | COc1ccccc1CCN1CCCC(CN(C)C(=O)CCC(N)=O)C1 (configuration not stated) | inconclusive [inhibitor, full curve]
22 | COc1ccc(CNC(=O)c2noc3c2CCCCC3)cc1 | inconclusive [inhibitor, full curve, poor fit]
23 | Cc1cc(=O)oc(C)c1C(=O)Nc1cnc2ccccc2c1 | inconclusive [inhibitor, full curve, poor fit]

Row | Structure (SMILES) | Potency
24 | Cc1ccc([C@@H]2[C@@H]3C(=O)N(C)C(=O)[C@@H]3[C@]3(Cc4ccccc4)C(=O)N(Cc4ccccn4)CC(=O)N23)o1 | inconclusive [inhibitor, full curve, poor fit]
25 | C/C(NCC(C)(C)CN(C)C)=C(/C#N)C(=O)NCc1ccccc1 | inconclusive [inhibitor, partial curve, poor fit]
26 | CC(CCc1ccccc1)NC(=O)C(=O)c1c[nH]c2ccccc12 (configuration not stated) | inactive
27 | CCOC(=O)/C=c1\sc2n(c1=O)CCN=2 | inconclusive [inhibitor, full curve, poor fit]
28 | Cc1ccc(S(=O)(=O)N(C)C)cc1NC(=O)COC(=O)/C=C/c1cccs1 | inconclusive [inhibitor, full curve, poor fit]
29 | Cc1ccc(OCC(=O)n2nc(C)cc2C)c(C)c1 | inconclusive [inhibitor, partial curve]
30 | O=C(CN1CCN(Cc2ccccc2F)C1=O)NCc1cccnc1 | inconclusive [inhibitor, full curve, poor fit]
31 | COCCCn1c2nc3ccccc3nc2c2c(=O)n(-c3ccccc3OC)c(C)nc21 | inconclusive [inhibitor, full curve, poor fit]
32 | O=C(Nc1ccc(NC(=O)c2ccccn2)cc1)C(=O)Nc1ccc2c(c1)OCCO2 | inactive
33 | O=C(CC12CC3CC(CC(C3)C1)C2)N/N=C/c1ccc([N+](=O)[O-])o1 | inconclusive [inhibitor, single point]
34 | Cc1cc(C)cc(N2Cc3ccccc3C2)c1 | inconclusive [inhibitor, full curve, poor fit]
35 | Nc1nc(N)c(N=O)c(OCC2CCCCC2)n1 | inconclusive [inhibitor, full curve, poor fit]
36 | Cc1cccc(-n2ncc3c(NCc4ccco4)ncnc32)c1 | inconclusive [inhibitor, partial curve]
37 | CCc1cccc2c(C(=O)CSc3nncn3-c3ccccc3OC)c[nH]c12 | inconclusive [inhibitor, partial curve]
38 | O=C(CCOc1ccccc1)N1CCN(c2ccc(O)cc2)CC1 | inactive
39 | CCCOc1ccc(CN(C)c2ncnc(N)n2)cc1 | inconclusive [inhibitor, full curve, poor fit]
40 | CC(=O)N1CC=C2C(C#N)=C(N)C(C#N)(C#N)[C@H](c3ccoc3)[C@H]2C1 | inactive
41 | CC1(c2ccc(OC(F)F)cc2)NC(=O)N(CC(=O)NC2CCCCC2)C1=O (configuration not stated) | inconclusive [inhibitor, full curve, poor fit]
42 | C=C(C)Cn1c(N2CCCC2)nc2c1c(=O)[nH]c(=O)n2C | inconclusive [inhibitor, partial curve]
43 | COC(=O)c1ccc(C2C(C(=O)Nc3ccc(C)cc3C)=C(C)Nc3ncnn32)cc1 (configuration not stated) | inconclusive [inhibitor, full curve, poor fit]
44 | CCOc1ccc(C(=O)OCC(=O)N2CCOCC2)cc1OCC | inconclusive [inhibitor, single point]
45 | Cc1ccc(S(=O)(=O)N(C)C)cc1NC(=S)NCc1ccco1 | inconclusive [inhibitor, partial curve, poor fit]
46 | COC(=O)[C@@H](N)Cc1ccc(O)cc1 | inconclusive [inhibitor, full curve, poor fit]

Row | Structure (SMILES) | Potency
47 | COc1ccc(-c2nnc(SC(C)C(=O)NNC(=O)c3ccc(C)cc3)o2)cc1 (configuration not stated) | inconclusive [inhibitor, single point]
48 | Fc1ccc(CN2CCCCCC2)c(F)c1 | inconclusive [inhibitor, full curve, poor fit]
49 | Cc1cccc(NC(=O)CN2C(=O)C3(SCC(=O)N3c3ccccc3)c3ccccc32)c1 (configuration not stated) | inactive
50 | Cc1ccc(O)c(N/C=C/C(=O)c2ccc(F)cc2)c1 | inactive
51 | CC(C)NC(=S)NC(=O)/C=C/c1cccc2ccccc12 | inconclusive [inhibitor, partial curve]
52 | COc1cc(/C=C(\C#N)C(=O)Nc2cccnc2)ccc1OC(C)C | inconclusive [inhibitor, partial curve, poor fit]
53 | CC(Oc1ccc(Br)cc1)C(=O)N1CCN(c2ccccn2)CC1 (configuration not stated) | inconclusive [inhibitor, partial curve, poor fit]
54 | Cc1ccc(Cn2c(CCNC(=O)c3cccc(C)c3)nc3ccccc32)cc1 | inactive
55 | Cc1ccc(S(=O)(=O)N2CCCCC2)cc1NC(=O)Nc1ccc(Cl)cc1Cl | inactive
56 | Cc1cc2cc(CN(Cc3ccc4c(c3)OCO4)Cc3nnnn3C3CCCC3)c(=O)[nH]c2cc1C | inconclusive [inhibitor, partial curve, poor fit]
57 | c1ccc(C2=Nn3c(nnc3-c3cc(-c4ccccc4)n[nH]3)SC2)cc1 | inconclusive [inhibitor, full curve, poor fit]
58 | CN(c1ccc(C(=O)Nc2ccc(Cl)cn2)cc1)S(=O)(=O)c1ccccc1 | inactive
59 | COc1ccccc1C(=O)NC(=S)Nc1ccc(N2CCOCC2)c(Cl)c1 | inconclusive [inhibitor, single point]
60 | CC1=Nn2c(nnc2-c2ccccc2F)SC1 | inconclusive [inhibitor, full curve]
61 | O=C(/C=C/NCc1cccnc1)C(F)(F)C(F)(F)F | inconclusive [inhibitor, full curve, poor fit]
62 | Cc1ccc2c(n1)CC(C)(C)CC2=O | inconclusive [inhibitor, full curve, poor fit]
63 | Nc1nonc1C(=O)NCCN=Cc1ccccc1O | inactive
64 | COC(=O)c1ccc(NC(=O)[C@H](C)NC(N)=O)cc1 | inactive
65 | COc1ccc(/C=C/c2cc(C(F)(F)F)on2)cc1 | inactive
66 | Cn1c(=O)cc(SCC(=O)Nc2ccc3c(c2)OCO3)c2ccccc21 | inactive
67 | CN(C(=O)COc1ccc(Cl)cc1Cl)C1(C)CCS(=O)(=O)C1 (configuration not stated) | inconclusive [inhibitor, full curve, poor fit]

Reference: PubChem BioAssay AID485294 (National Center for Advancing Translational Sciences (NCATS), 2010)
